Test results taken from US9567641B2, “Combination therapy for the treatment of cancer using an anti-C-met antibody” (SAMSUNG ELECTRONICS CO., LTD., priority 2013, dated 2017).

Assays:
Settings in all cases: rank among the four antibodies selected in Reference Example 1.7
Akt phosphorylation = test: Akt phosphorylation; format: cell-based
c-Met [1] = target: T1, c-Met (Homo sapiens, UniProt P08581); test: c-Met degradation degree; format: cell-based
c-Met [2] = target: T1, c-Met; test: Affinity / specificity for c-Met; format: binding

T1 sequence (P08581 25-1390): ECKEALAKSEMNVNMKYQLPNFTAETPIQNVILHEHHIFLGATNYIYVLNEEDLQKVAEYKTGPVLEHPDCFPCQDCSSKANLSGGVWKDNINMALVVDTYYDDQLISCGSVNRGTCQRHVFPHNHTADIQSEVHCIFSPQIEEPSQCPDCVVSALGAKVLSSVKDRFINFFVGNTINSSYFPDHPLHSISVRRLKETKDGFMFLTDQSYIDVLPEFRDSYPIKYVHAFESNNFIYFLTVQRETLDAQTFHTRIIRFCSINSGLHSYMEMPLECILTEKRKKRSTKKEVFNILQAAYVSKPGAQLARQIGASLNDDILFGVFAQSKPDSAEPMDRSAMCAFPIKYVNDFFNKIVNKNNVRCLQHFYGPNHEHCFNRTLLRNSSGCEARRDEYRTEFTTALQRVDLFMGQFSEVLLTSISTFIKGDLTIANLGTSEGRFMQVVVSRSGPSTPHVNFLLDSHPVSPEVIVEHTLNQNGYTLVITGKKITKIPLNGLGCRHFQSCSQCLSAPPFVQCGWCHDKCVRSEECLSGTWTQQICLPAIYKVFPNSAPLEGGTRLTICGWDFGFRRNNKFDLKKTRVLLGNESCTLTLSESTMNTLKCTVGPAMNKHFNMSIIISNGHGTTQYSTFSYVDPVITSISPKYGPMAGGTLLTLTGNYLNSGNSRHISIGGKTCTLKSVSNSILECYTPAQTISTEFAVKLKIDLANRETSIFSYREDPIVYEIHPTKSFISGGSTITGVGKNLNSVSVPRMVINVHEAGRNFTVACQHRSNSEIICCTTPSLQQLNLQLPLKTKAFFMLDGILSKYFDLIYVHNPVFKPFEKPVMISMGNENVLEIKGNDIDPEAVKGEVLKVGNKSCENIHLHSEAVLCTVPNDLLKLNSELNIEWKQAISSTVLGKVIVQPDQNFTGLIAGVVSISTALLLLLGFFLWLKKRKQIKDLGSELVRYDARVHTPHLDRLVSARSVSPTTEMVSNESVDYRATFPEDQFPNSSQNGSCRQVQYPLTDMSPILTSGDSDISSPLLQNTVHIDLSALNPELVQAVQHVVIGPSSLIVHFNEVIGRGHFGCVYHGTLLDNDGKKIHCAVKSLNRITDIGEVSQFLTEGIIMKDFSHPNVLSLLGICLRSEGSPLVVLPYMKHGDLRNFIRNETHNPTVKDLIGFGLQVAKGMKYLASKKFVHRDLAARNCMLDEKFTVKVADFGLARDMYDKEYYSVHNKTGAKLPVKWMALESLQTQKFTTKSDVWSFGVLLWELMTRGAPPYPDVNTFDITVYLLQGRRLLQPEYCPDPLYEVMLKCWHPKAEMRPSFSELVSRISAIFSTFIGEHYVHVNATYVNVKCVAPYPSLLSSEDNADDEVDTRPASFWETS

c-Met degradation degree (c-Met [1]): lowest
affinity for c-Met (c-Met [2]): highest
B1: huAbF46-H4-A1: affinity-matured anti-c-Met antibody, L3-1 origin (antibody)
heavy: EVQLVESGGGLVQPGGSLRLSCAASGFTFTDYYMSWVRQAPGKGLEWLGFIRNKANGYTTEYSASVKGRFTISRDNSKNTLYLQMNSLRAEDTAVYYCARDNWFAYWGQGTLVTVSSASTKGPSVFPLAPSSKSTSGGTAALGCLVKDYFPEPVTVSWNSGALTSGVHTFPAVLQSSGLYSLSSVVTVPSSSLGTQTYICNVNHKPSNTKVDKKVEPKSCDCH[not shown - human IgG1 Fc]
light: DIQMTQSPSSLSASVGDRVTITCKSSQSLLASGNQNNYLAWHQQKPGKAPKMLIIWASTRVSGVPSRFSGSGSGTDFTLTISSLQPEDFATYYCQQSYSRPYTFGQGTKVEIKRTVAAPSVFIFPPSDEQLKSGTASVVCLLNNFYPREAKVQWKVDNALQSGNSQESVTEQDSKDSTYSLSSTLTLSKADYEKHKVYACEVTHQGLSSPVTKSFNRGEC
Akt phosphorylation (Akt phosphorylation): lowest
